The other results are listed elsewhere or left out. Sequences were assembled here from the parent chain. Values near 0.05 are background.
B1: TEV protease; numbered along this chain (parent)
chain: MGESLFKGPRDYNPISSSICHLTNESDGHTTSLYGIGFGPFIITNKHLFRRNNGTLVVQSLHGVFKVKDTTTLQQHLVDGRDMIIIRMPKDFPPFPQKLKFREPQREERICLVTTNFQTKSMSSMVSDTSCTFPSGDGIFWKHWIQTKDGQCGSPLVSTRDGFIVGIHSASNFTNTNNYFTSVPKNFMELLTNQEAQQWVSGWRLNADSVLWGGHKVFMVKPEEPFQPVKEATQL

Variants of: B1
Experiment: raw area under fraction-flipped curve 0-4 h after induction (AUC4h, not background-subtracted), DNA-recorder readout of cleavage of the substrate (dimensionless); higher = more cleavage of the substrate by the protease variant
Conditions: temperature: 34 °C; time window: 0-4 h after rhamnose induction
Experimental: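 In vivo DNA recorder in E. coli TOP10(DE3) ΔrhaA at 34 °C. Each TEVp single-site mutant (parent TEVp 0) is paired with a single-site variant of the 7-mer TEVs (canonical ENLYFQ|S). The substrate sits between flexible linkers in a Bxb1-sfGFP-TEVs-SsrA fusion, so cleavage stabilises Bxb1 and speeds flipping of a recombination array, read by NGS. The value is the raw area under the fraction-flipped curve over 0-4 h after rhamnose induction (AUC4h), with ≥20 reads per time point. It is not background-subtracted; inactive controls average about 0.047.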
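Note: Bxb1 expression induced with 0.2% (w/v) L-rhamnose at OD600 near 0.5, cultures sampled hourly, flipped fraction per protease–substrate barcode pair counted by paired-end Illumina sequencing.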

Variant | area with substrate ENAYFQS | area with substrate ENCYFQS | area with substrate ENDYFQS | area with substrate ENEYFQS | area with substrate ENFYFQS | area with substrate ENGYFQS | area with substrate ENNYFQS | area with substrate ENPYFQS | area with substrate ENRYFQS | area with substrate ENSYFQS
MGESLFKGPRDYNPISSSICHLTNESDGHTTSLYGIGFGPFIITNKHLFRRNNGTLVVQSLHGVFKVKDTTTLQQHLVDGRDMIIIRMPKDFPPFPQKLKFREPQREERICLVTTNFQTKSMSSMVSDTSCTFPSGDGIFWKHWIQTKDGQCGSPLVSTRDGFIVGIHSASNFTNTNNYFTEVPKNFMELLTNQEAQQWVSGWRLNADSVLWGGHKVFMVKPEEPFQPVKEATQL [S182E] | 0.069 | 0.056 | 0.0611 | 0.0469 | 0.0409 | 0.0711 | 0.0455 | 0.0714 | 0.0607 | 0.0483
MGESLFKGPRDYNPISSSICHLTNESDGHTTSLYGIGFGPFIITNKHLFRRNNGTLVVQSLHGVFKVKDTTTLQQHLVDGRDMIIIRMPKDFPPFPQKLKFREPQREERICLVTTNFQTKSMSSMVSDTSCTFPSGDGIFWKHWIQTKDGQCGSPLVSTRDGFIVGIHSASNFTNTNNYFTFVPKNFMELLTNQEAQQWVSGWRLNADSVLWGGHKVFMVKPEEPFQPVKEATQL [S182F] | 0.0453 | 0.0582 |  | 0.0541 |  |  | 0.0644 | 0.0571 |  | 
MGESLFKGPRDYNPISSSICHLTNESDGHTTSLYGIGFGPFIITNKHLFRRNNGTLVVQSLHGVFKVKDTTTLQQHLVDGRDMIIIRMPKDFPPFPQKLKFREPQREERICLVTTNFQTKSMSSMVSDTSCTFPSGDGIFWKHWIQTKDGQCGSPLVSTRDGFIVGIHSASNFTNTNNYFTHVPKNFMELLTNQEAQQWVSGWRLNADSVLWGGHKVFMVKPEEPFQPVKEATQL [S182H] | 0.0512 |  |  | 0.0569 |  | 0.0515 | 0.0548 |  |  | 0.0707
MGESLFKGPRDYNPISSSICHLTNESDGHTTSLYGIGFGPFIITNKHLFRRNNGTLVVQSLHGVFKVKDTTTLQQHLVDGRDMIIIRMPKDFPPFPQKLKFREPQREERICLVTTNFQTKSMSSMVSDTSCTFPSGDGIFWKHWIQTKDGQCGSPLVSTRDGFIVGIHSASNFTNTNNYFTSVPANFMELLTNQEAQQWVSGWRLNADSVLWGGHKVFMVKPEEPFQPVKEATQL [K185A] | 0.074 |  | 0.0587 |  | 0.0474 |  |  |  | 0.0316 | 0.0551
MGESLFKGPRDYNPISSSICHLTNESDGHTTSLYGIGFGPFIITNKHLFRRNNGTLVVQSLHGVFKVKDTTTLQQHLVDGRDMIIIRMPKDFPPFPQKLKFREPQREERICLVTTNFQTKSMSSMVSDTSCTFPSGDGIFWKHWIQTKDGQCGSPLVSTRDGFIVGIHSASNFTNTNNYFTSVPNNFMELLTNQEAQQWVSGWRLNADSVLWGGHKVFMVKPEEPFQPVKEATQL [K185N] | 0.0878 |  | 0.0608 |  | 0.0728 | 0.0889 |  |  | 0.0466 | 0.0715

Same assay, conditions: temperature: 34 °C; time window: 0-4 h after rhamnose induction

Variant | area with substrate ENQYFQS | area with substrate ENTYFQS | area with substrate ENVYFQS | area with substrate ENHYFQS | area with substrate ENWYFQS | area with substrate ENYYFQS
MGESLFKGPRDYNPISSSICHLTNESDGHTTSLYGIGFGPFIITNKHLFRRNNGTLVVQSLHGVFKVKDTTTLQQHLVDGRDMIIIRMPKDFPPFPQKLKFREPQREERICLVTTNFQTKSMSSMVSDTSCTFPSGDGIFWKHWIQTKDGQCGSPLVSTRDGFIVGIHSASNFTNTNNYFTFVPKNFMELLTNQEAQQWVSGWRLNADSVLWGGHKVFMVKPEEPFQPVKEATQL [S182F] | 0.0544 | 0.0481 | 0.0662 |  |  | 
MGESLFKGPRDYNPISSSICHLTNESDGHTTSLYGIGFGPFIITNKHLFRRNNGTLVVQSLHGVFKVKDTTTLQQHLVDGRDMIIIRMPKDFPPFPQKLKFREPQREERICLVTTNFQTKSMSSMVSDTSCTFPSGDGIFWKHWIQTKDGQCGSPLVSTRDGFIVGIHSASNFTNTNNYFTHVPKNFMELLTNQEAQQWVSGWRLNADSVLWGGHKVFMVKPEEPFQPVKEATQL [S182H] | 0.0547 |  | 0.0569 | 0.0547 | 0.0485 | 0.0619
MGESLFKGPRDYNPISSSICHLTNESDGHTTSLYGIGFGPFIITNKHLFRRNNGTLVVQSLHGVFKVKDTTTLQQHLVDGRDMIIIRMPKDFPPFPQKLKFREPQREERICLVTTNFQTKSMSSMVSDTSCTFPSGDGIFWKHWIQTKDGQCGSPLVSTRDGFIVGIHSASNFTNTNNYFTSVPANFMELLTNQEAQQWVSGWRLNADSVLWGGHKVFMVKPEEPFQPVKEATQL [K185A] | 0.0708 | 0.0633 | 0.0621 |  |  | 
MGESLFKGPRDYNPISSSICHLTNESDGHTTSLYGIGFGPFIITNKHLFRRNNGTLVVQSLHGVFKVKDTTTLQQHLVDGRDMIIIRMPKDFPPFPQKLKFREPQREERICLVTTNFQTKSMSSMVSDTSCTFPSGDGIFWKHWIQTKDGQCGSPLVSTRDGFIVGIHSASNFTNTNNYFTSVPNNFMELLTNQEAQQWVSGWRLNADSVLWGGHKVFMVKPEEPFQPVKEATQL [K185N] | 0.0519 |  | 0.0939 |  | 0.0479 | 

Source: the supplement of paper PMC12217912
